Biological target: N-terminal truncated recombinant human PDE7B enzyme (Homo sapiens (Human), UniProt Q9NP56)
Assay: biochemical

| Compound | IC50 [nM] |
| --- | --- |
| CN(C)CCNC(=O)c1nc2cc(Cl)c3c(c2o1)C1(CCCCC1)NC(=O)N3 [Example 179, 5-Chloro-N-[2-(dimethylamino)ethyl]-7-oxo-7,8-dihydro-6H-spiro[[1,3]oxazolo[5,4-f]quinazoline-9,1′-cyclohexane]-2-carboxamide] | 100 to 1000 |
| C[C@@]12CCN(C(=O)c3cc4cc(Cl)c5c(c4o3)C3(CCCCC3)NC(=O)N5)C[C@@H]1C2(F)F [Example 399, 5′-Chloro-2′-[(1R,6R)-7,7-difluoro-6-methyl-3-azabicyclo[4.1.0]heptane-3-carbonyl]-7′,8′-dihydro-6′H-spiro[cyclohexane-1,9′-furo[2,3-f]quinazoline]-7′-one] | 10 to 100 |
| CC(C)CC1(CO)CCCN(C(=O)c2cc3cc(Cl)c4c(c3o2)C2(CCCCC2)NC(=O)N4)C1 (stereo not shown) [Example 278, 5′-Chloro-2′-[3-(hydroxymethyl)-3-(2-methylpropyl)piperidine-1-carbonyl]-7′,8′-dihydro-6′H-spiro[cyclohexane-1,9′-furo[2,3-f]quinazoline]-7′-one] | 10 to 100 |
| Cc1nc(CCNC(=O)c2cc3cc(Cl)c4c(c3o2)C2(CCCCC2)NC(=O)N4)sc1C [Example 466, 5′-Chloro-N-[2-(dimethyl-1,3-thiazol-2-yl)ethyl]-7′-oxo-7′,8′-dihydro-6′H-spiro[cyclohexane-1,9′-furo[2,3-f]quinazoline]-2′-carboxamide] | 10 to 100 |
| O=C1Nc2c(Cl)cc3nc(CNCc4cocn4)oc3c2C2(CCCCC2)N1 [Example 173, 5-Chloro-2-{[(1,3-oxazol-4-ylmethyl)amino]methyl}-7,8-dihydro-6H-spiro[[1,3]oxazolo[5,4-f]quinazoline-9,1′-cyclohexane]-7-one] | 10 to 100 |
| O=C1Nc2c(Cl)cc3cc(CN4CCN(C(=O)N5CCCC5)CC4)oc3c2C2(CCCCC2)N1 [Example 538, 5′-Chloro-2′-{[4-(pyrrolidine-1-carbonyl)piperazin-1-yl]methyl}-7′,8′-dihydro-6′H-spiro[cyclohexane-1,9′-furo[2,3-f]quinazoline]-7′-one] | 10 to 100 |
| CS(=O)(=O)N1CCN(Cc2cc3cc(Cl)c4c(c3o2)C2(CCCCC2)NC(=O)N4)CC1 [Example 524, 5′-Chloro-2′-[(4-methanesulfonylpiperazin-1-yl)methyl]-7′,8′-dihydro-6′H-spiro[cyclohexane-1,9′-furo[2,3-f]quinazoline]-7′-one] | 100 to 1000 |
| CN1CCN(C(=O)c2nc3cc(Cl)c4c(c3o2)C2(CCCCC2)NC(=O)N4)CC1 [Example 182, 5-Chloro-2-(4-methylpiperazine-1-carbonyl)-7,8-dihydro-6H-spiro[[1,3]oxazolo[5,4-f]quinazoline-9,1′-cyclohexane]-7-one] | 10 to 100 |
| O=C1Nc2c(Cl)cc3cc(C(=O)N4CCCCCC4)oc3c2C2(CCCCC2)N1 [Example 422, 2′-(Azepane-1-carbonyl)-5′-chloro-7′,8′-dihydro-6′H-spiro[cyclohexane-1,9′-furo[2,3-f]quinazoline]-7′-one] | 10 to 100 |
| O=C1Nc2c(Cl)cc3nc(CN[C@@H]4CCCOC4)oc3c2C2(CCC(F)(F)CC2)N1 [Example 229, 5-Chloro-4′,4′-difluoro-2-({[(3R)-oxan-3-yl]amino}methyl)-7,8-dihydro-6H-spiro[[1,3]oxazolo[5,4-f]quinazoline-9,1′-cyclohexane]-7-one] | 100 to 1000 |
| CC(C)N(C(=O)c1cc2cc(Cl)c3c(c2o1)C1(CCCCC1)NC(=O)N3)C(C)C [Example 412, 5′-Chloro-7′-oxo-N,N-bis(propan-2-yl)-7′,8′-dihydro-6′H-spiro[cyclohexane-1,9′-furo[2,3-f]quinazoline]-2′-carboxamide] | 10 to 100 |
| CN(C)CCCN(C)C(=O)c1cc2cc(Cl)c3c(c2o1)C1(CCCCC1)NC(=O)N3 [Example 264, 5′-Chloro-N-[3-(dimethylamino)propyl]-N-methyl-7′-oxo-7′,8′-dihydro-6′H-spiro[cyclohexane-1,9′-furo[2,3-f]quinazoline]-2′-carboxamide] | 100 to 1000 |
| O=C1Nc2c(Cl)cc3cc(C(=O)NCCn4cccn4)oc3c2C2(CCCCC2)N1 [Example 324, 5′-Chloro-7′-oxo-N-[2-(1H-pyrazol-1-yl)ethyl]-7′,8′-dihydro-6′H-spiro[cyclohexane-1,9′-furo[2,3-f]quinazoline]-2′-carboxamide] | 10 to 100 |
| O=C1Nc2c(Cl)cc3cc(CN4CCn5c(nnc5C(F)(F)F)C4)oc3c2C2(CCCCC2)N1 [Example 521, 5′-Chloro-2′-{[3-(trifluoromethyl)-5H,6H,7H,8H-[1,2,4]triazolo[4,3-a]pyrazin-7-yl]methyl}-7′,8′-dihydro-6′H-spiro[cyclohexane-1,9′-furo[2,3-f]quinazoline]-7′-one] | 100 to 1000 |
| O=C1Nc2c(Cl)cc3nc(C(=O)N[C@@H]4CCOC4)oc3c2C2(CCCCC2)N1 [Example 220, 5-Chloro-7-oxo-N-[(3R)-oxolan-3-yl]-7,8-dihydro-6H-spiro[[1,3]oxazolo[5,4-f]quinazoline-9,1′-cyclohexane]-2-carboxamide] | 10 to 100 |
| CN(CC1CCOCC1)C(=O)c1nc2cc(Cl)c3c(c2o1)C1(CCCCC1)NC(=O)N3 [Example 186, 5-Chloro-N-methyl-N-(oxan-4-ylmethyl)-7-oxo-7,8-dihydro-6H-spiro[[1,3]oxazolo[5,4-f]quinazoline-9,1′-cyclohexane]-2-carboxamide] | 10 to 100 |

| Compound | IC50 [nM] |
| --- | --- |
| COc1ccc(CCNC(=O)c2cc3cc(Cl)c4c(c3o2)C2(CCCCC2)NC(=O)N4)cc1 [Example 445, 5′-Chloro-N-[2-(4-methoxyphenyl)ethyl]-7′-oxo-7′,8′-dihydro-6′H-spiro[cyclohexane-1,9′-furo[2,3-f]quinazoline]-2′-carboxamide] | 10 to 100 |
| CN(Cc1cc(C2CC2)[nH]n1)Cc1cc2cc(Cl)c3c(c2o1)C1(CCCCC1)NC(=O)N3 [Example 507, 5′-Chloro-2′-({[(5-cyclopropyl-1H-pyrazol-3-yl)methyl](methyl)amino}methyl)-7′,8′-dihydro-6′H-spiro[cyclohexane-1,9′-furo[2,3-f]quinazoline]-7′-one] | 100 to 1000 |
| CN(Cc1cc(C(C)(C)C)[nH]n1)C(=O)c1cc2cc(Cl)c3c(c2o1)C1(CCCCC1)NC(=O)N3 [Example 306, N-[(5-tert-Butyl-1H-pyrazol-3-yl)methyl]-5′-chloro-N-methyl-7′-oxo-7′,8′-dihydro-6′H-spiro[cyclohexane-1,9′-furo[2,3-f]quinazoline]-2′-carboxamide] | 10 to 100 |
| O=C1Nc2c(Cl)cc3cc(C(=O)NCc4ccccc4F)oc3c2C2(CCCCC2)N1 [Example 254, 5′-Chloro-N-[(2-fluorophenyl)methyl]-7′-oxo-7′,8′-dihydro-6′H-spiro[cyclohexane-1,9′-furo[2,3-f]quinazoline]-2′-carboxamide] | 100 to 1000 |
| O=C1Nc2c(Cl)cc3cc(C(=O)NCc4cccc(F)n4)oc3c2C2(CCCCC2)N1 [Example 373, 5′-Chloro-N-[(6-fluoropyridin-2-yl)methyl]-7′-oxo-7′,8′-dihydro-6′H-spiro[cyclohexane-1,9′-furo[2,3-f]quinazoline]-2′-carboxamide] | 10 to 100 |
| CN(C(=O)c1nc2cc(Cl)c3c(c2o1)C1(CCCCC1)NC(=O)N3)C1CCOCC1 [Example 198, 5-Chloro-N-methyl-N-(oxan-4-yl)-7-oxo-7,8-dihydro-6H-spiro[[1,3]oxazolo[5,4-f]quinazoline-9,1′-cyclohexane]-2-carboxamide] | 10 to 100 |
| COc1ccc(CNC(=O)c2cc3cc(Cl)c4c(c3o2)C2(CCCCC2)NC(=O)N4)c(OC)c1 [Example 300, 5′-Chloro-N-[(2,4-dimethoxyphenyl)methyl]-7′-oxo-7′,8′-dihydro-6′H-spiro[cyclohexane-1,9′-furo[2,3-f]quinazoline]-2′-carboxamide] | 100 to 1000 |
| CN(C)CCN(C)C(=O)c1nc2cc(Cl)c3c(c2o1)C1(CCCCC1)NC(=O)N3 [Example 193, 5-Chloro-N-[2-(dimethylamino)ethyl]-N-methyl-7-oxo-7,8-dihydro-6H-spiro[[1,3]oxazolo[5,4-f]quinazoline-9,1′-cyclohexane]-2-carboxamide] | 100 to 1000 |
| O=C1Nc2c(Cl)cc3cc(CNC4COC4)oc3c2C2(CCCCC2)N1 [Example 583, 5′-Chloro-2′-{[(oxetan-3-yl)amino]methyl}-7′,8′-dihydro-6′H-spiro[cyclohexane-1,9′-furo[2,3-f]quinazoline]-7′-one] | 10 to 100 |
| CO[C@@H]1CCCN(C(=O)c2nc3cc(Cl)c4c(c3o2)C2(CCCCC2)NC(=O)N4)C1 [Example 200, 5-Chloro-2-[(3R)-3-methoxypiperidine-1-carbonyl]-7,8-dihydro-6H-spiro[[1,3]oxazolo[5,4-f]quinazoline-9,1′-cyclohexane]-7-one] | 10 to 100 |
| O=C1Nc2c(Cl)cc3cc(C(=O)N4CCCCC4CO)oc3c2C2(CCCCC2)N1 (stereo not shown) [Example 414, 5′-Chloro-2′-[2-(hydroxymethyl)piperidine-1-carbonyl]-7′,8′-dihydro-6′H-spiro[cyclohexane-1,9′-furo[2,3-f]quinazoline]-7′-one] | 10 to 100 |
| O=C1Nc2c(Cl)cc3nc(C(=O)NC4CCCC4(F)F)oc3c2C2(CCCCC2)N1 (stereo not shown) [Example 214, 5-Chloro-N-(2,2-difluorocyclopentyl)-7-oxo-7,8-dihydro-6H-spiro[[1,3]oxazolo[5,4-f]quinazoline-9,1′-cyclohexane]-2-carboxamide] | 100 to 1000 |
| Cc1nn(C)c(C)c1CN(C)C(=O)c1cc2cc(Cl)c3c(c2o1)C1(CCCCC1)NC(=O)N3 [Example 310, 5′-Chloro-N-methyl-7′-oxo-N-[(trimethyl-1H-pyrazol-4-yl)methyl]-7′,8′-dihydro-6′H-spiro[cyclohexane-1,9′-furo[2,3-f]quinazoline]-2′-carboxamide] | 10 to 100 |
| COc1ccc(CNC(=O)c2cc3cc(Cl)c4c(c3o2)C2(CCCCC2)NC(=O)N4)c(F)c1 [Example 317, 5′-Chloro-N-[(2-fluoro-4-methoxyphenyl)methyl]-7′-oxo-7′,8′-dihydro-6′H-spiro[cyclohexane-1,9′-furo[2,3-f]quinazoline]-2′-carboxamide] | 10 to 100 |
| C[C@@H]1CN(Cc2cc3cc(Cl)c4c(c3o2)C2(CCCCC2)NC(=O)N4)C[C@H](C)O1 [Example 503, 5′-Chloro-2′-{[(2R,6S)-2,6-dimethylmorpholin-4-yl]methyl}-7′,8′-dihydro-6′H-spiro[cyclohexane-1,9′-furo[2,3-f]quinazoline]-7′-one] | 10 to 100 |

Source: patent US11685745B2, “Substituted benzoxazole and benzofuran compounds as PDE7 inhibitors” (Dart NeuroScience, LLC, priority 2017, dated 2023)
